We go through 3 compounds from a compilation of properties of binary mixtures (doi:10.1016/j.molliq.2021.116805).

The data set in a line: xn = mol fraction of the nth substance listed. Conditions: 101 kPa.

Some of these densities may be calculated back from excess volumes.

As to `CCCCCCCCCCCCCCCCCC[n+]1ccn(C)c1.O=S(=O)([N-]S(=O)(=O)C(F)(F)F)C(F)(F)F` + CCCCCCCCCCCCCCCCn1cc[n+](C)c1.O=S(=O)([N-]S(=O)(=O)C(F)(F)F)C(F)(F)F, the mass density reads like this: (333 K, x2 = 0.621) 1149.9 kg/m3; (343 K, x2 = 0.621) 1141.9 kg/m3; (353 K, x2 = 0.621) 1134 kg/m3.
In the case of `CCCCCCCCCCCCCC[n+]1ccn(C)c1.O=S(=O)([N-]S(=O)(=O)C(F)(F)F)C(F)(F)F` + CCCCCCCCCCCCCCCCn1cc[n+](C)c1.O=S(=O)([N-]S(=O)(=O)C(F)(F)F)C(F)(F)F, the mass density stood at 1192.5 kg/m3 (313 K, x1 = 0.6709); 1184.3 kg/m3 (323 K, x1 = 0.6709); 1176.2 kg/m3 (333 K, x1 = 0.6709); 1168.1 kg/m3 (343 K, x1 = 0.6709); 1160.1 kg/m3 (353 K, x1 = 0.6709).
Turning to `CCCCCCCCCCCCCCCCCC[n+]1ccn(C)c1.O=S(=O)([N-]S(=O)(=O)C(F)(F)F)C(F)(F)F` + CCCCCCCCCCCCCC[n+]1ccn(C)c1.O=S(=O)([N-]S(=O)(=O)C(F)(F)F)C(F)(F)F, the mass density by setting is: (333 K, x2 = 0.7675) 1174.1 kg/m3; (343 K, x2 = 0.7675) 1165.9 kg/m3; (353 K, x2 = 0.7675) 1157.9 kg/m3.
